# From a collection of fitness landscapes (doi:10.1126/science.1257360)
# Some of the results follow.
# B1: PhoQ; a variant is named by its letters at X, in order, P23837 (parent)
# chain: MKKLLRLFFPLSLRVRFLLATAAVVLVLSLAYGMVALIGYSVSFDKTTFRLLRGESNLFYTLAKWENNKLHVELPENIDKQSPTMTLIYDENGQLLWAQRDVPWLMKMIQPDWLKSNGFHEIEADVNDTSLLLSGDHSIQQQLQEVREDDDDAEMTHSVAVNVYPATSRMPKLTIVVVDTIPVELKSSYMVWSWFIYVLSANLLLVIPLLWVAAWWSLRPIEALAKEVRELEEHNRELLNPATTRELTSLVRNLNRLLKSERERYDKYRTTLTDLTHSLKTPLXXLQXXLRSLRSEKMSVSDAEPVMLEQISRISQQIGYYLHRASMRGGTLLSRELHPVAPLLDNLTSALNKVYQRKGVNISLDISPEISFVGEQNDFVEVMGNVLDNACKYCLEFVEISARQTDEHLYIVVEDDGPGIPLSKREVIFDRGQRVDTLRPGQGVGLAVAREITEQYEGKIVAGESMLGGARMEVIFGRQHSAPKDE
# Variants of: B1
# Experiment: enrichment ratio after two sorts for PhoP signalling (ratio (wild type AVST 3.29)); higher = more functional
# Conditions: with PhoP (E. coli)
row,Variant,enrichment ratio
1,WNRH,≤ 0.25
2,AYLY,≤ 0.25
3,RNQV,≤ 0.25
4,LHLF,≤ 0.25
5,LLPQ,≤ 0.25
6,IYTK,≤ 0.25
7,IPDC,≤ 0.25
8,ESSI,1.14
9,QPMA,≤ 0.25
10,NHRY,≤ 0.25
11,PMQD,≤ 0.25
12,SNWL,≤ 0.25
13,IFYM,≤ 0.25
14,DYGV,≤ 0.25
15,PCIN,≤ 0.25
16,LAFI,3.17
17,QPFA,≤ 0.25
18,VLAQ,≤ 0.25
19,WEIP,≤ 0.25
20,LYYW,≤ 0.25
21,FTNW,≤ 0.25
22,ITSD,≤ 0.25
23,IMYV,≤ 0.25
24,QSDQ,2.13
25,NKRG,≤ 0.25
26,QQAY,≤ 0.25

row,Variant,enrichment ratio
1,PMYV,≤ 0.25
2,WVEK,≤ 0.25
3,GCCW,≤ 0.25
4,MDHE,≤ 0.25
5,SFDT,≤ 0.25
6,VNFA,≤ 0.25
7,PYDP,≤ 0.25
8,EDAS,≤ 0.25
9,NMTH,≤ 0.25
10,LGDS,≤ 0.25
11,WYHE,≤ 0.25
12,LESD,≤ 0.25
13,WYWY,≤ 0.25
14,NSPP,1.17
15,EAQF,≤ 0.25
16,AMMN,1.37
17,GGYG,≤ 0.25
18,QEIA,≤ 0.25
19,YDSN,≤ 0.25
20,DIFE,≤ 0.25
21,INGG,≤ 0.25
22,LIHG,≤ 0.25
23,MTCM,12.2
24,ERKH,≤ 0.25
25,VQKV,≤ 0.25
26,WGPG,≤ 0.25

row,Variant,enrichment ratio
1,RRST,≤ 0.25
2,DHRN,≤ 0.25
3,PWMG,≤ 0.25
4,DMPF,≤ 0.25
5,VGTL,≤ 0.25
6,MTKD,≤ 0.25
7,IFQL,≤ 0.25
8,NSMC,≤ 0.25
9,PDVY,≤ 0.25
10,ANAV,14.3
11,HCGL,≤ 0.25
12,QAPC,≤ 0.25
13,RRQA,≤ 0.25
14,TKDS,≤ 0.25
15,MMYM,≤ 0.25
16,RRAR,≤ 0.25
17,KYAH,≤ 0.25
18,NIYS,≤ 0.25
19,EDLE,≤ 0.25
20,ASNP,≤ 0.25
21,HTRQ,≤ 0.25
22,PDYW,≤ 0.25
23,KCPE,≤ 0.25
24,GGSP,≤ 0.25
25,YPIN,≤ 0.25
26,MTNI,≤ 0.25

row,Variant,enrichment ratio
1,YMTY,≤ 0.25
2,WCNI,≤ 0.25
3,LSVL,≤ 0.25
4,DLPF,≤ 0.25
5,PNLM,≤ 0.25
6,ENES,≤ 0.25
7,GNIW,≤ 0.25
8,FHNK,5.86
9,RGGF,≤ 0.25
10,ILKV,≤ 0.25
11,LRSE,≤ 0.25
12,LRGM,≤ 0.25
13,VGWL,0.787
14,VMTG,≤ 0.25
15,PLKL,≤ 0.25
16,LVKA,≤ 0.25
17,KHYM,≤ 0.25
18,HDHS,≤ 0.25
19,MMFH,≤ 0.25
20,FQMP,≤ 0.25
21,QKVQ,≤ 0.25
22,TNLA,8.08
23,QSCL,0.738
24,NLFS,≤ 0.25
25,TSRQ,≤ 0.25
26,KETH,2.2

row,Variant,enrichment ratio
1,TVWW,≤ 0.25
2,VITW,≤ 0.25
3,AFTM,3.07
4,LSGG,≤ 0.25
5,PQYQ,≤ 0.25
6,GHKF,≤ 0.25
7,AKSP,≤ 0.25
8,LNKG,≤ 0.25
9,DGSL,≤ 0.25
10,MYPR,≤ 0.25
11,QDVT,≤ 0.25
12,VLPT,≤ 0.25
13,RPIC,≤ 0.25
14,NTEP,≤ 0.25
15,GKYC,≤ 0.25
16,GIWI,≤ 0.25
17,SNTC,6.48
18,KKMV,≤ 0.25
19,NSSK,≤ 0.25
20,YKTA,≤ 0.25
21,IHQV,≤ 0.25
22,WWSI,≤ 0.25
23,RSCE,≤ 0.25
24,WTCP,≤ 0.25
25,RCIH,≤ 0.25
26,DLPY,≤ 0.25

row,Variant,enrichment ratio
1,KAND,≤ 0.25
2,LPTR,≤ 0.25
3,ECRQ,≤ 0.25
4,DAKH,≤ 0.25
5,KKVL,≤ 0.25
6,IQSL,≤ 0.25
7,YWNC,≤ 0.25
8,VQCR,≤ 0.25
9,YRPQ,≤ 0.25
10,ECHD,≤ 0.25
11,WFFH,≤ 0.25
12,GGKP,≤ 0.25
13,EGYP,≤ 0.25
14,YLRT,≤ 0.25
15,EDCW,≤ 0.25
16,STSC,11.6
17,KPYF,≤ 0.25
18,RWFM,≤ 0.25
19,GLTR,≤ 0.25
20,PLRW,≤ 0.25
21,SYCH,0.609
22,TWFA,≤ 0.25
23,HLLK,≤ 0.25
